This note sets out measurements from article PMC12136788.

The other results are listed elsewhere or left out.

B1: chr1:185309019:185309167:-|CDS|ENSG00000116679|unk|FALSE|unique (ssRNA)
RNA: GGGAGUUCUACAGUCCGACGAUCGCACACAGAGCAGUGCUAGCUUGCUGCAGUCCCUAUUUAUUUGAAAUCUUUAAUAGUGAUAGUGAUCCUCAUGGAAUUUCUCACGUUAAAUUUGAUGAUCUCAAUCCAGAAGCUGUUGAACAACAGAGGAUUGAGCAUCA
B2: chr18:9400975:9401076:+|3pUTR|ENSG00000128791|msi1|total|mutant (ssRNA)
RNA: GGGAGUUCUACAGUCCGACGAUCUAUAAAAACCGAUAAUGCUCUUGGACACAUUUUGUAUUAUUCAUGAUCUGAACCGCCGUCCGUUAAAAGAUCAUUUGUAAUAUUAUGAUCAACUGUUAUAAAUUAAGGUCUUAAUACCUUCAACAGAGGAUUGAGCAUCA
B3: chr17:42200006:42200107:-|3pUTR|ENSG00000173757|unk|total|mutant (ssRNA)
RNA: GGGAGUUCUACAGUCCGACGAUCAAGCUGCCGUUUGCCUUGGCUUGGUUUCAUACACUGAUUUAUUUUUCUAUGCCAGGCAGCCGAGUCUCUCUGCCUCUGAGGAGCAGGCUACCCGCAUCCCACUCAGCCCCUCCCUACCCCCAACAGAGGAUUGAGCAUCA
B4: chr12:50175971:50176072:-|3pUTR|ENSG00000050405|msi1|FALSE|bound_elsewhere (ssRNA)
RNA: GGGAGUUCUACAGUCCGACGAUCCACAGUAUUCUCAGGGUGAAAUUAAACCAACUAUAGGCCUUUUUCUUGGGAUGAUUUUCUAGUCUUAAGGUUUGGGGACAUUAUAAACUUGAGUACAUUUGUUGUACACAGUUGAUAUUCCAACAGAGGAUUGAGCAUCA
B5: chr5:141515350:141515460:-|3pUTR|ENSG00000131504|msi1_unk|total|mutant (ssRNA)
RNA: GGGAGUUCUACAGUCCGACGAUCCUCAGCUUUCCAUCCCCAGCCCGGAAGAAAGAAUGGCACUCUUGGGCUUGGCCCAGAAUCCGAGUUAUCCGAGCAAGAGAGAGCUCCGGAAGCAUGAGGGCAACUACCGUGAGGCCUUAUCAACAGAGGAUUGAGCAUCA
B6: chr3:48857559:48857660:-|3pUTR|ENSG00000178537|unk|FALSE|unique (ssRNA)
RNA: GGGAGUUCUACAGUCCGACGAUCGGCUGAAGGCUGCUCAAGUUCACUUCUGGAUGCUGGAAGCUGUCGUUGAGGAGAAGGAGUAGUAAGCAGAACUAAGCAGUCUUGGAGGGCAAGGGGAGGGGAAUGGUGAGAUCCGAGCCCCAACAGAGGAUUGAGCAUCA
B7: chr12:14501823:14501924:+|3pUTR|ENSG00000171681|unk|FALSE|unique (ssRNA)
RNA: GGGAGUUCUACAGUCCGACGAUCUUUUGUUGUUUGCUCUUUUGCUUUAAAUAUUCUCCAAAUUACCAUUUAUGCAACAUGGUUAGGGUUAAUACUGCAUGGUAUUCAUUUAUCUUGUUUCAUGAACUUUCCAGUACUGUACAACAACAGAGGAUUGAGCAUCA
B8: chr6:13639604:13639705:-|CDS|ENSG00000010017|unk|FALSE|unique (ssRNA)
RNA: GGGAGUUCUACAGUCCGACGAUCGAUAGUGAAGUACGAUGUUUGGGAGGCCGAAGUCCAAAGUCUCAAGACAGUUAUCCUGUUAGUCCUCGACCUUUUAGUAGUCCAAGUAUGAGCCCCAGCCAUGGAAUGAAUAUCCACAAUCAACAGAGGAUUGAGCAUCA
B9: chr5:149977868:149977977:+|CDS|ENSG00000155850|unk|FALSE|unique (ssRNA)
RNA: GGGAGUUCUACAGUCCGACGAUCUAUUAAAAAGCUGCAGAAGAAUUGCCAGUGCAGUCCAGCCAAAGCCAAAAAUAUGAUUUUAGGUUUCCUUCCUGUUUUGCAGUGGCUCCCAAAAUACGACCUAAAGAAAAACAUUUUAGGCAACAGAGGAUUGAGCAUCA
B10: chr18:3457781:3457936:+|CDS|ENSG00000177426|unk|FALSE|unique (ssRNA)
RNA: GGGAGUUCUACAGUCCGACGAUCCAACACUCCUCCCCCUACUCCACCGGACCUCAACCAGGACUUCAGUGGAUUUCAGCUUCUAGUGGAUGUUGCACUCAAACGGGCUGCAGAGAUGGAGCUUCAGGCAAAACUUACAGCUUACAACAGAGGAUUGAGCAUCA
B11: chr20:25297698:25297799:+|3pUTR|ENSG00000100994|msi1|FALSE|unique (ssRNA)
RNA: GGGAGUUCUACAGUCCGACGAUCCCCAAGAGAGAGGGCAGGGAACAGGCUACUGUCCUUCCCUGUGGAAUUGCCGAGAAAUCUAGCACCUUGCAUGCUGGAUCUGGGCUGCGGGGAGGCUCUUUUUCUCCCUGGCCUCCAGUGCAACAGAGGAUUGAGCAUCA
B12: chr3:154276180:154276282:-|CDS|ENSG00000174953|unk|total|mutant (ssRNA)
RNA: GGGAGUUCUACAGUCCGACGAUCUCAUCCUGCCGACUGGAAUGACACUAAAUCCAGAGACUGUGCAGUACUGUCAGCUAUUACCGACUUGAUCAAAACACAGGAAAAGGCAACUCCCAGGAACUUUCCGCCACGAUUCCAGGACAACAGAGGAUUGAGCAUCA
B13: chr11:35810521:35810622:+|3pUTR|ENSG00000166326|unk|FALSE|bound_elsewhere (ssRNA)
RNA: GGGAGUUCUACAGUCCGACGAUCCCAGAAACCAUAAGACUCAGGCAGUUCUUGAUUCUGGAGGCCUGCCUGGUAAGAUAAGAUAGUAUAAUUUGGAACUGAGAACAUACCAGAAACAGCAGAACGAGGGCCAGAGCAGAAAAACAACAGAGGAUUGAGCAUCA
B14: ENSG00000136451:be:win_1301|CDS|ENSG00000136451|bound_else_gene|NA|bound_elsewhere_windowed (ssRNA)
RNA: GGGAGUUCUACAGUCCGACGAUCUUAACAUAACCAGCCCAAUGAACAUAGGGCAUCCUGUAACUAUAACCAGUCCAUUAUCCAUGACCUCUCCUUUAACACUCACUACCCCAGUCAACCUCCCCACCCCCGUCACUGCCCCAGCAACAGAGGAUUGAGCAUCA

The assay addresses MSI1 full-length (mouse, UniProt Q61474 1-362). As to the kind of experiment: nsRBNS (natural sequence RNA bind-n-seq); RBNS binding buffer (assumed for nsRBNS): 25 mM Tris pH 7.5, 150 mM KCl, 3 mM MgCl2, 0.01% Triton X-100, 500 ug/ml BSA, 20 U/ml SUPERase-In, 4 C; UNK is unkempt and MSI1 is Musashi-1; names of the RNAs are library labels; protein concentration not given here; high values mean tight binding.
Sequence of UniProt Q61474 (Q61474 whole entry): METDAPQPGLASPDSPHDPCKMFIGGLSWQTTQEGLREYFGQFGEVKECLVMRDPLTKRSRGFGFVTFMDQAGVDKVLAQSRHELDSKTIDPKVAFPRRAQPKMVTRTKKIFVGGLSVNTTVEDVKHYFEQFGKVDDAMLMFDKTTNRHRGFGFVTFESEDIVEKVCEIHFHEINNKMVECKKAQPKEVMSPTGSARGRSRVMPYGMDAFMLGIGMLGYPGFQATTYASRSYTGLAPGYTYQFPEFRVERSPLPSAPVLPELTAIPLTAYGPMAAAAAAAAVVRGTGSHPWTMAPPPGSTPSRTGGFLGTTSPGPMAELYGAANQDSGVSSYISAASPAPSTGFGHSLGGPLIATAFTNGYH
For the molecule B1, the binding signal was determined as 0.669 enrichment R.

B2 showed a binding signal of 0.599 enrichment R.

For the molecule B3, the binding signal was 0.705 enrichment R.

The molecule B4 returned a binding signal of 0.768 enrichment R.

Molecule B5 had a binding signal of 0.337 enrichment R.

As for B6, the binding signal came to 0.735 enrichment R.

For the molecule B7, the binding signal turned out to be 0.421 enrichment R.

In turn, B8 came in with a binding signal of 1.45 enrichment R.

For the molecule B9, the binding signal turned out to be 0.174 enrichment R.

As for B10, the binding signal is 0.537 enrichment R.

For the molecule B11, the binding signal came out at 0.329 enrichment R.

For B12, the binding signal was found to be 0.377 enrichment R.

B13 yielded a binding signal of 4.44 enrichment R.

Consider B14, for which the binding signal is 2.59 enrichment R.
